{"source": "the supplement of paper PMC8728848", "binders": {"B1": {"name": "Clec2 (Mus musculus), Q9JL99 (protein)", "chain": "MQDEDGYITLNIKPRKQALSSAEPASSWWRVMALVLLISSMGLVVGLVALGIMSVTQQKYLLAEKENLSATLQQLAKKFCQELIRQSEIKTKSTFEHKCSPCATKWRYHGDSCYGFFRRNLTWEESKQYCTEQNATLVKTASQSTLDYIAERITSVRWIGLSRQNSKKDWMWEDSSVLRKNGINLSGNTEENMNCAYLHNGKIHPASCKERHYLICERNAGMTRVDQLL"}}, "assay_in_all_cases": "glycan array binding signal (z-score within array); higher = stronger binding", "settings_in_all_cases": "glycan notation: IUPAC condensed, linker removed", "key": {"Neu5Ac(a2-6)Gal": {"molecular_target": "Neu5Ac(a2-6)Gal", "procedure,_shortened": "(§1)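 Glycan array data were curated from 3228 arrays in the Consortium for Functional Glycomics database and kept only where the protein sequence was available. Glycan names were converted to IUPAC-condensed notation, and columns mapping to the same glycan were averaged. The binding signal is a within-array Z-score, averaged across arrays of the same protein sequence at different concentrations or buffers and across linkers. Negative Z-scores can be read as non-binding.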"}, "[1]": {"molecular_target": "Neu5Ac(a2-6)Gal(b1-3)GlcNAc(b1-3)[Gal(b1-4)GlcNAc(b1-6)]Gal(b1-4)Glc", "procedure,_shortened": "as §1"}, "Neu5Ac(a2-6)Gal(b1-4)Glc": {"molecular_target": "Neu5Ac(a2-6)Gal(b1-4)Glc", "procedure,_shortened": "as §1"}, "[2]": {"molecular_target": "Neu5Ac(a2-6)Gal(b1-4)GlcNAc", "procedure,_shortened": "as §1"}, "[3]": {"molecular_target": "Neu5Ac(a2-6)Gal(b1-4)GlcNAc(b1-2)Man", "procedure,_shortened": "as §1"}, "[4]": {"molecular_target": "Neu5Ac(a2-6)Gal(b1-4)GlcNAc(b1-2)Man(a1-3)Man(b1-4)GlcNAc(b1-4)GlcNAc", "procedure,_shortened": "as §1"}, "[5]": {"molecular_target": "Neu5Ac(a2-6)Gal(b1-4)GlcNAc(b1-2)Man(a1-3)[Gal(b1-4)GlcNAc(b1-2)Man(a1-6)]Man(b1-4)GlcNAc(b1-4)GlcNAc", "procedure,_shortened": "as §1"}, "[6]": {"molecular_target": "Neu5Ac(a2-6)Gal(b1-4)GlcNAc(b1-2)Man(a1-3)[GlcNAc(b1-2)Man(a1-6)]Man(b1-4)GlcNAc(b1-4)GlcNAc", "procedure,_shortened": "as §1"}, "[7]": {"molecular_target": "Neu5Ac(a2-6)Gal(b1-4)GlcNAc(b1-2)Man(a1-3)[GlcNAc(b1-4)][Neu5Ac(a2-6)Gal(b1-4)GlcNAc(b1-2)Man(a1-6)]Man(b1-4)GlcNAc(b1-4)GlcNAc", "procedure,_shortened": "as §1"}, "[8]": {"molecular_target": "Neu5Ac(a2-6)Gal(b1-4)GlcNAc(b1-2)Man(a1-3)[Man(a1-6)]Man(b1-4)GlcNAc(b1-4)GlcNAc", "procedure,_shortened": "as §1"}, "[9]": {"molecular_target": "Neu5Ac(a2-6)Gal(b1-4)GlcNAc(b1-2)Man(a1-3)[Neu5Ac(a2-3)Gal(b1-4)GlcNAc(b1-2)Man(a1-6)]Man(b1-4)GlcNAc(b1-4)GlcNAc", "procedure,_shortened": "as §1"}, "[10]": {"molecular_target": "Neu5Ac(a2-6)Gal(b1-4)GlcNAc(b1-2)Man(a1-3)[Neu5Ac(a2-6)Gal(b1-4)GlcNAc(b1-2)Man(a1-6)]Man(b1-4)GlcNAc(b1-4)GlcNAc", "procedure,_shortened": "as §1"}, "[11]": {"molecular_target": "Neu5Ac(a2-6)Gal(b1-4)GlcNAc(b1-2)Man(a1-3)[Neu5Ac(a2-6)Gal(b1-4)GlcNAc(b1-2)Man(a1-6)]Man(b1-4)GlcNAc(b1-4)[Fuc(a1-6)]GlcNAc", "procedure,_shortened": "as §1"}, "[12]": {"molecular_target": "Neu5Ac(a2-6)Gal(b1-4)GlcNAc(b1-2)Man(a1-6)Man(b1-4)GlcNAc(b1-4)GlcNAc", "procedure,_shortened": "as §1"}, "[13]": {"molecular_target": "Neu5Ac(a2-6)Gal(b1-4)GlcNAc(b1-2)Man(a1-6)[Gal(b1-4)GlcNAc(b1-2)Man(a1-3)]Man(b1-4)GlcNAc(b1-4)GlcNAc", "procedure,_shortened": "as §1"}, "[14]": {"molecular_target": "Neu5Ac(a2-6)Gal(b1-4)GlcNAc(b1-2)Man(a1-6)[GlcNAc(b1-2)Man(a1-3)]Man(b1-4)GlcNAc(b1-4)GlcNAc", "procedure,_shortened": "as §1"}, "[15]": {"molecular_target": "Neu5Ac(a2-6)Gal(b1-4)GlcNAc(b1-2)Man(a1-6)[Man(a1-3)]Man(b1-4)GlcNAc(b1-4)GlcNAc", "procedure,_shortened": "as §1"}, "[16]": {"molecular_target": "Neu5Ac(a2-6)Gal(b1-4)GlcNAc(b1-2)[Neu5Ac(a2-6)Gal(b1-4)GlcNAc(b1-4)]Man(a1-3)[GlcNAc(b1-4)][Neu5Ac(a2-6)Gal(b1-4)GlcNAc(b1-2)[Neu5Ac(a2-6)Gal(b1-4)GlcNAc(b1-6)]Man(a1-6)]Man(b1-4)GlcNAc(b1-4)GlcNAc", "procedure,_shortened": "as §1"}, "[17]": {"molecular_target": "Neu5Ac(a2-6)Gal(b1-4)GlcNAc(b1-2)[Neu5Ac(a2-6)Gal(b1-4)GlcNAc(b1-4)]Man(a1-3)[GlcNAc(b1-4)][Neu5Ac(a2-6)Gal(b1-4)GlcNAc(b1-4)Man(a1-6)]Man(b1-4)GlcNAc(b1-4)GlcNAc", "procedure,_shortened": "as §1"}, "[18]": {"molecular_target": "Neu5Ac(a2-6)Gal(b1-4)GlcNAc(b1-2)[Neu5Ac(a2-6)Gal(b1-4)GlcNAc(b1-6)]Man(a1-6)[Neu5Ac(a2-6)Gal(b1-4)GlcNAc(b1-2)Man(a1-3)][GlcNAc(b1-4)]Man(b1-4)GlcNAc(b1-4)GlcNAc", "procedure,_shortened": "as §1"}, "[19]": {"molecular_target": "Neu5Ac(a2-6)Gal(b1-4)GlcNAc(b1-3)Gal(b1-3)GlcNAc", "procedure,_shortened": "as §1"}, "[20]": {"molecular_target": "Neu5Ac(a2-6)Gal(b1-4)GlcNAc(b1-3)Gal(b1-4)GlcNAc", "procedure,_shortened": "as §1"}, "[21]": {"molecular_target": "Neu5Ac(a2-6)Gal(b1-4)GlcNAc(b1-3)Gal(b1-4)GlcNAc(b1-2)Man(a1-3)[Neu5Ac(a2-6)Gal(b1-4)GlcNAc(b1-3)Gal(b1-4)GlcNAc(b1-2)Man(a1-6)]GalNAc", "procedure,_shortened": "as §1"}}, "note": "The list shows a part of the results."}
{"binder": "B1", "values": [{"measurement": "glycan array binding signal (z-score)", "setting": "Neu5Ac(a2-6)Gal", "value": 0.223}, {"measurement": "glycan array binding signal (z-score)", "setting": "[1]", "value": -0.779}, {"measurement": "glycan array binding signal (z-score)", "setting": "Neu5Ac(a2-6)Gal(b1-4)Glc", "value": 0.133}, {"measurement": "glycan array binding signal (z-score)", "setting": "[2]", "value": -0.277}, {"measurement": "glycan array binding signal (z-score)", "setting": "[3]", "value": 1.49}, {"measurement": "glycan array binding signal (z-score)", "setting": "[4]", "value": -0.282}, {"measurement": "glycan array binding signal (z-score)", "setting": "[5]", "value": -0.526}, {"measurement": "glycan array binding signal (z-score)", "setting": "[6]", "value": -0.833}, {"measurement": "glycan array binding signal (z-score)", "setting": "[7]", "value": -0.774}, {"measurement": "glycan array binding signal (z-score)", "setting": "[8]", "value": -0.706}, {"measurement": "glycan array binding signal (z-score)", "setting": "[9]", "value": -0.94}, {"measurement": "glycan array binding signal (z-score)", "setting": "[10]", "value": -0.489}, {"measurement": "glycan array binding signal (z-score)", "setting": "[11]", "value": -0.567}, {"measurement": "glycan array binding signal (z-score)", "setting": "[12]", "value": -0.685}, {"measurement": "glycan array binding signal (z-score)", "setting": "[13]", "value": -0.707}, {"measurement": "glycan array binding signal (z-score)", "setting": "[14]", "value": -0.458}, {"measurement": "glycan array binding signal (z-score)", "setting": "[15]", "value": -0.867}, {"measurement": "glycan array binding signal (z-score)", "setting": "[16]", "value": -0.622}, {"measurement": "glycan array binding signal (z-score)", "setting": "[17]", "value": -0.605}, {"measurement": "glycan array binding signal (z-score)", "setting": "[18]", "value": -0.253}, {"measurement": "glycan array binding signal (z-score)", "setting": "[19]", "value": -0.457}, {"measurement": "glycan array binding signal (z-score)", "setting": "[20]", "value": -0.737}, {"measurement": "glycan array binding signal (z-score)", "setting": "[21]", "value": -0.609}]}
